From the supplement of paper PMC7826260
Some of the results follow. One pool of 16,384 single-stranded DNAs met each Rep nickase domain in vitro (3 µM enzyme, 1 h, 37 °C); shown is the middle of each 90-letter strand. The score is log2 (uncut reads / reads without enzyme); the lower, the more was cut; hits are not called. Because reads are shares of a total, they shift together, so uncut sequences can rise above 0 when many others are cut.

Assays:
Experiment in all cases: uncleaved DNA left, log2 of reads against the no-enzyme library (log2 ratio); higher = less cleavage (more negative = more Rep cleavage of the k-mer); sequences stand for … in CTCGTCCG…ACCGGAGA
[1] = system: T1, Rep nickase domain of Muscovy duck circovirus
T1 sequence (residues 1-111, tag not shown): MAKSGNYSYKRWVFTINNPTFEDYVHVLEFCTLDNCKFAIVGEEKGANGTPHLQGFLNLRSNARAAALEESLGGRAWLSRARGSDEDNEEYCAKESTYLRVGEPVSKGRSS
Procedure: (§1)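 A pool of 90-nt single-stranded DNAs with seven random bases just before the constant AC of the nick site (name = the seven bases) was cut by 3 µM recombinant His6-SUMO-tagged Rep nickase domain (300 nM DNA, 50 mM HEPES pH 8.0, 50 mM NaCl, 1 mM MnCl2, 1 h, 37 °C, three replicates). Uncut DNA was amplified and sequenced.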

[2] = system: T2, Rep nickase domain of banana bunchy top virus
T2 sequence (residues 1-94, tag not shown): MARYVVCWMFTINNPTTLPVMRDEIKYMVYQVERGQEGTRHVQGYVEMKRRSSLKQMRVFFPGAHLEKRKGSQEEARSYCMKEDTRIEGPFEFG
Procedure: as §1

[3] = system: T3, Rep nickase domain of cabbage leaf curl virus
T3 sequence (residues 1-116, tag not shown): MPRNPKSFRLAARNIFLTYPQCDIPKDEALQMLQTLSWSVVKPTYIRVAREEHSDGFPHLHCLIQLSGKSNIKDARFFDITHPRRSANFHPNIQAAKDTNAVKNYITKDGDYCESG
Procedure: as §1

[4] = system: T4, Rep nickase domain of chickpea chlorotic dwarf virus
T4 sequence (residues 1-124, tag not shown): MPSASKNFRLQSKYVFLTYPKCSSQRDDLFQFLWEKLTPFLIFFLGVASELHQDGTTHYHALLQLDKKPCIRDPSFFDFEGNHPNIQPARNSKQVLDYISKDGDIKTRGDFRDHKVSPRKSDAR
Procedure: as §1

[5] = system: T5, Rep nickase domain of faba bean necrotic yellows virus
T5 sequence (residues 1-98, tag not shown): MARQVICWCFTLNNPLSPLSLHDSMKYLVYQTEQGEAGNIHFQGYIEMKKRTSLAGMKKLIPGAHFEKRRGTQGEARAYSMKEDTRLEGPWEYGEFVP
Procedure: as §1

[6] = system: T6, Rep nickase domain of maize striate mosaic virus
T6 sequence (residues 1-117, tag not shown): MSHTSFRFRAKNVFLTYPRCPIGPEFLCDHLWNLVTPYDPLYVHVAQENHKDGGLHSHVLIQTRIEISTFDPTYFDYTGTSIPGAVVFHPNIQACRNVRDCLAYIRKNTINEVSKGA
Procedure: as §1

[7] = system: T7, Rep nickase domain of porcine circovirus 2
T7 sequence (residues 2-116, tag not shown): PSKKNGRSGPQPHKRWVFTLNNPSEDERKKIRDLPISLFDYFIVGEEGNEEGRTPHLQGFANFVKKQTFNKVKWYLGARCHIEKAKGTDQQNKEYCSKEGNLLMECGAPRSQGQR
Procedure: as §1

[8] = system: T8, Rep nickase domain of tomato golden mosaic virus
T8 sequence (residues 1-124, tag not shown): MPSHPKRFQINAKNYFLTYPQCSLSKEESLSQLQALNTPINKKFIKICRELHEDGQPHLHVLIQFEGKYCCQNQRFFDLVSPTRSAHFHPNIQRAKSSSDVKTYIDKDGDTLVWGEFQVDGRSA
Procedure: as §1

[9] = system: T9, Rep nickase domain of tomato yellow leaf curl virus
T9 sequence (residues 1-136, tag not shown): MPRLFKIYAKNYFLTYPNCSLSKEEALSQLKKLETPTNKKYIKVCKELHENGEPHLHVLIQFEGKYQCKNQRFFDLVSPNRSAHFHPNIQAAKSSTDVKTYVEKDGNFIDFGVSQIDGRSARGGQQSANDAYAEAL
Procedure: as §1

[10] = system: T10, Rep nickase domain of wheat dwarf virus
T10 sequence (residues 1-137, tag not shown): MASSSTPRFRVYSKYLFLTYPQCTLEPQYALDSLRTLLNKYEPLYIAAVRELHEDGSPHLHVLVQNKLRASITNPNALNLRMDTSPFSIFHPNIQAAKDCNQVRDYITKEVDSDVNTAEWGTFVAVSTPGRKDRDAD
Procedure: as §1

Row | Sequence | uncleaved DNA left (log2) [1] | uncleaved DNA left (log2) [2] | uncleaved DNA left (log2) [3] | uncleaved DNA left (log2) [4] | uncleaved DNA left (log2) [5] | uncleaved DNA left (log2) [6] | uncleaved DNA left (log2) [7] | uncleaved DNA left (log2) [8] | uncleaved DNA left (log2) [9] | uncleaved DNA left (log2) [10]
1 | TTCATGG | 0.0459 | 0.0723 | 0.494 | 1.12 | 0.0383 | 1.08 | 0.221 | 0.138 | -0.0173 | 0.0642
2 | ATCGATT | -0.153 | -0.0786 | -0.118 | -1.4 | 0.107 | -0.0444 | -0.119 | -0.0645 | -0.171 | 0.00623
3 | CCTTATC | 0.155 | 0.327 | 0.931 | 1.31 | 0.265 | 1.48 | 0.125 | 0.205 | 0.254 | 0.225
4 | CATGAGC | 0.0618 | 0.051 | -0.618 | -0.614 | -0.0189 | -1.11 | 0.145 | 0.00629 | 0.0643 | -0.0858
5 | TCTTTCG | 0.0677 | 0.00954 | -0.818 | -0.259 | 0.0838 | -1.15 | 0.107 | -0.0181 | -0.069 | -0.0943
6 | AAATACT | -4.5 | -3.47 | -4.89 | -4.02 | -0.89 | -3.56 | -4.49 | -4.01 | -3 | -4.58
7 | TTTACAG | 0.07 | -0.0555 | -0.833 | -2.01 | 0.0251 | -1.14 | 0.114 | -0.035 | -0.0264 | 0.0168
8 | TTTACGC | -0.0164 | -0.0334 | 0.116 | -0.53 | 0.0886 | -0.0804 | 0.146 | -0.03 | -0.019 | 0.0291
9 | CATCTGT | 0.101 | 0.00516 | -0.0265 | -0.43 | -0.201 | -0.377 | -0.0359 | -0.0658 | 0.0483 | -0.0523
10 | ACTCAGA | 0.0664 | 0.00709 | -0.269 | -0.367 | -0.0208 | -1.06 | 0.0714 | -0.0174 | -0.149 | -0.163
11 | GCACGTG | -0.0189 | 0.000776 | -0.292 | -0.219 | 0.0483 | -0.704 | 0.0422 | -0.0103 | 0.0768 | -0.0273
12 | TTGCTTA | 0.101 | 0.00875 | -0.324 | -1.03 | 0.191 | -0.98 | 0.0494 | -0.014 | 0.121 | 0.113
13 | GGCGGGC | 0.159 | 0.068 | 0.586 | 1.01 | 0.122 | 1.35 | 0.232 | 0.0825 | 0.0713 | 0.0839
14 | TCAGTAC | -0.0859 | -0.102 | -0.0455 | -0.581 | -0.109 | -0.547 | -0.0613 | -0.111 | -0.165 | 0.00899
15 | GGTGGAG | 0.0679 | 0.0692 | 0.02 | 0.474 | 0.168 | 0.101 | 0.376 | 0.0453 | 0.149 | 0.168
